According to patent US20170305975A1 (PROCLARA BIOSCIENCES, published 2017):

Assays:
[1] = molecular target: SOD-1 (apo-enzyme monomers assembling into fibers); test: cell-based or functional assay
[2] = molecular target: T1, amyloid-β 1-42 fibers (fAβ42) (human, UniProt P05067 part only); test: SPR on Aβ fibrils, 25° C.
T1 construct: domain: amyloid-β 1-42; also called Aβ fibrils; Aβ fibers

tau fibers (ftau) = test: SPR, MTBR surface (~2000RU), Construct 6 2.5 µM in HBS pH=7.5, 10 µL/min

T1 sequence (P05067 672-713 limits assumed): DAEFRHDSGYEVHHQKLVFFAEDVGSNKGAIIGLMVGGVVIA

B1: rs-g3p(N1N2)-hIgG1-Fc fusion protein (Construct 6) (Fc fusion)
chain: ETVESCLAKPHTENSFTNVWKDDKTLDRYANYEGCLWNATGVVVCTGDETQCYGTWVPIGLAIPENEGGGSEGGGSEGGGSEGGGTKPPEYGDTPIPGYTYINPLDGTYPPGTEQNPANPNPSLEESQPLNTFMFQNNRFRNRQGALTVYTGTFTQGTDPVKTYYQYTPVSSKAMYDAYWNGKFRDCAFHSGFNEDPFVCEYQGQSSDLPQPPVNAGGGSGGGSGGGSEGGGSEGGGSEGGGSEGGGSGGGSGSGAMVRS[human IgG1 Fc not shown]
notes: also called N1N2-IgG1Fc fusion protein; IgG1Fc-g3p(N1N2)
IC50 of inhibition of SOD-1 fiber formation, ThT fluorescence [1]: ~750 nM | Kd [2]: 9.2 nM | koff [2]: 0.000158 s⁻¹ | kon [2]: 17100 M⁻¹ s⁻¹ | Kd (tau fibers (ftau)): 75.1 nM | koff (tau fibers (ftau)): 0.000641 s⁻¹ | kon (tau fibers (ftau)): 8540 M⁻¹ s⁻¹
